Data published in publication PMC6919601, “Identification of Plasmodium dipeptidyl aminopeptidase allosteric inhibitors by high throughput screening” (PLoS ONE, 2019).
Out of some 110,000 compounds screened, about 230 (0.21%) showed an effect of 50% or more. The list shows a part of the results.

biological target: DPAP1 (Plasmodium falciparum, UniProt Q8IIJ9); assay: primary screen, percent inhibition; read by cleavage of a fluorogenic dipeptide substrate; higher = more effect of the substance; design: species or system P. falciparum D10 trophozoite lysates; single well
Sequence (Q8IIJ9 whole entry, looked up): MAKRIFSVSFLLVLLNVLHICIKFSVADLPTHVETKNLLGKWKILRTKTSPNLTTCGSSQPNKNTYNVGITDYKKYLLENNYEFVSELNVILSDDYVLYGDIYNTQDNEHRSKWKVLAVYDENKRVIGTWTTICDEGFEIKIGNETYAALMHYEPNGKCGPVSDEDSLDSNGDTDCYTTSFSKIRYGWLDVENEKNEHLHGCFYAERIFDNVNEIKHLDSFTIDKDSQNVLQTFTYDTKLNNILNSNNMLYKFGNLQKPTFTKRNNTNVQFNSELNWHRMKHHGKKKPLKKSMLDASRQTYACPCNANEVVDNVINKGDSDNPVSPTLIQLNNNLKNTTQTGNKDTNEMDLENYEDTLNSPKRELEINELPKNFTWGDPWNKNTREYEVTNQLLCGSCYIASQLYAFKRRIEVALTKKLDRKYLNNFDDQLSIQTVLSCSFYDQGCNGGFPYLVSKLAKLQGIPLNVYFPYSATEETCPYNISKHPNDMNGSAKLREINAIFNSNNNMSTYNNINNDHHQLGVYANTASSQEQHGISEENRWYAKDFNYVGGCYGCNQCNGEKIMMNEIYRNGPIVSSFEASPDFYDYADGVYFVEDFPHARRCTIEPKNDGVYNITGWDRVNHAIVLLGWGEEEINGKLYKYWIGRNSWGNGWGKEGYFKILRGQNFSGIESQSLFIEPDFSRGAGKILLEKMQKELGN
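Also: 30 min substrate incubation versus DMSO and 10 µM JCP410 controls.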

Structure (SMILES) | % Inhibition @ 10 uM [%]
Cc1ccc2cnn(CC(=O)N3CCCCC3)c2c1 | -2.88
COc1ccc(CCNC2CCCCC2)cc1OC | 1.71
CC(Cc1ccccc1)NC(=O)c1c[nH]cn1 (stereo not shown) | -3.8
COc1ccc(/C=C2\CN(C(C)C)C/C(=C\c3ccc(OC)c(OC)c3OC)C2=O)c(OC)c1OC | -3.79
O=C(c1cc2ccccc2oc1=O)N1CCSC1c1ccc(Br)cc1 (stereo not shown) | 2.22
COc1cccc(-c2ccc(C#N)c(SCC(=O)Nc3cccc(NC(C)=O)c3)n2)c1 | 4.28
O=S(=O)(NCCCc1ccccc1)c1ccc(-c2ccc(O)nn2)o1 | -0.171
O=C(NCc1nc2ccccc2[nH]1)c1ccccc1Cl | 4.1
O=C(NCC1CCCO1)C1C2C=CC3(CN(Cc4cccs4)C(=O)C13)O2 (stereo not shown) | -4.06
CC1=C(C(=O)Nc2ccccc2)C(c2ccc(Br)cc2)NC(=O)N1 (stereo not shown) | -1.8
CC(=O)N1CCc2c(sc3nc(SCc4ccc(F)cc4)n(CC4CCCO4)c(=O)c23)C1 (stereo not shown) | 1.02
Nc1c(Cc2ccccc2)ccc2c1C(=O)c1ccccc1C2=O | 4.16
COc1cc(C2c3c(oc4ccccc4c3=O)C(=O)N2CCCN2CCOCC2)ccc1O (stereo not shown) | 0.628
COc1ccccc1-c1cc(C2CC2)nc(N)c1C#N | -0.446
O=C(NCc1ccccn1)Nc1ccc(Cl)c(Cl)c1 | -4.39
O=C(Nc1ccccc1C(F)(F)F)c1cccs1 | -1.22
O=C(Cn1ncc2c3ccccc3n(Cc3ccc(F)cc3)c2c1=O)NC1CCCC1 | 1.8
Cc1ccc(-c2c(C#N)c(N)nc3c2CCCCC3)s1 | -3.14
O=C1CC(c2ccccc2)CC(=O)C1=CNCc1ccc2c(c1)OCO2 (stereo not shown) | -3.63
Cc1cc(N2CCOCC2)ccc1/C=C1\NC(=O)N(CC(=O)Nc2ccccc2C)C1=O | -4.43
Cc1cccc(N2CCN(C(=O)c3ccccc3[N+](=O)[O-])CC2)c1C | 3.01
Cc1ccc(-c2nnc3s/c(=C\c4ccc(C)o4)c(=O)n23)cc1 | -1.33
Cc1nn(-c2ccccc2)c(-n2cccc2)c1C(=O)N(C)Cc1ccccc1 | 0.137
CCCCCCOC(=O)NCC(O)c1ccccc1 (stereo not shown) | -1.25
COc1cc(NC(=O)c2ccccc2)c(Cl)cc1NC(=O)c1ccc(N(C)C)cc1 | -3.98

Structure (SMILES) | % Inhibition @ 10 uM [%]
COc1ccccc1N1CCN(C(=O)c2ccccc2C(=O)O)CC1 | -3.04
COc1ccc(OC)c(-c2csc(-c3ccccn3)n2)c1 | 1
CC1=NOC(=O)/C1=C/c1ccc(-c2ccc(Cl)c(Cl)c2)o1 | -2.87
COCCCNC(=O)c1ccc2c(c1)ncn2-c1ccc(F)c(F)c1 | -3.93
COc1ccc(S(=O)(=O)NCC(=O)Nc2ccc(Cl)cc2C)cc1OC | -16
N#CCNC(=O)[C@H](CS(=O)(=O)Cc1ccccc1OC(F)F)NC(=O)c1cccnc1O | -10.7
O=c1cccc2n1C[C@H]1C[C@@H]2CN(Cc2ccc(F)cc2F)C1 | -5.48
Cc1cc(Br)ccc1NC(=O)c1cccc2ccccc12 | 0.705
CC(C)C[C@H](NC(=O)c1cc(-c2ccncc2)c(Cl)s1)C(=O)NCC#N | 4.33
CS(=O)(=O)c1ccc2nc(NC(=O)c3nc(SCc4ccccc4)ncc3Cl)sc2c1 | 0.548
Cc1nc2c(cc(O)c3ccsc32)s1 | -11.1
O=C(CC(c1ccccc1O)N1CCCCC1)N1CCCCC1 (stereo not shown) | -7.35
COc1ccc(C2C(C(=O)O)c3ccccc3C(=O)N2C)cc1OC (stereo not shown) | -3.31
CC1CN(CC(O)COc2ccc(Cl)cc2)CC(C)O1 (stereo not shown) | -3.44
O=C1CCCC2=C1C(c1cccs1)C1C(=O)c3ccccc3C1=N2 (stereo not shown) | -0.171
CN(C)S(=O)(=O)c1ccc2c(c1)Cc1cc(S(=O)(=O)N(C)C)ccc1-2 | -3.75
CC1=C(C(=O)NCCCN2CCN(C)CC2)C2(CCCCC2)OC1=O | 1.76
CC1(C)CC2=NC3=C(C(=O)c4ccccc43)C(c3cccnc3)C2=C(O)C1 (stereo not shown) | 0.851
O=C(Nc1cccc(Br)c1)/C(=C\c1ccco1)NC(=O)c1cccs1 | 0.792
CCN(CC)c1ccc(NC(=O)c2ccc(Cl)cc2)cc1 | 6.18
Cc1cccc(C(=O)Nc2sc3c(c2C(=O)N2CCOCC2)CCC3)c1 | -6.6
C[C@@H](C[C@H](NC(=O)c1ccc(-c2cc(C(=O)O)ccc2Cl)cc1)C(=O)NC1(C#N)CCS(=O)(=O)CC1)c1ccccc1 | -8.36
CCC1CCC(NCc2ccncc2)CC1 (stereo not shown) | -3.42
Cc1ccccc1S(=O)Cc1ccc(C(=O)N2CC(C)CC(C)C2)o1 (stereo not shown) | -3.09
O=C(CN1C(=O)c2ccccc2C1=O)Nc1ccc(NC(=O)c2ccco2)cc1 | 11.5

Structure (SMILES) | % Inhibition @ 10 uM [%]
COc1ccc(CN2CCN(Cc3cccc(Br)c3)CC2)c(OC)c1 | -4.6
COCCNC(=O)c1cc2c(Cl)nc3ccccc3c2s1 | 4.41
Cc1noc(/C=C/c2cccs2)c1S(=O)(=O)N1CCC(C(=O)NCc2cccnc2)CC1 | -1.28
O=C(CN1CCN(c2ccc(Cl)cc2)CC1)Nc1ccccc1Cl | 15.2
c1ccc(CN2CCC(NCC3CCCO3)CC2)cc1 (stereo not shown) | 1.57
COc1ccc(-c2cc(-c3ccc(F)cc3)nc(-c3ccncc3)n2)cc1 | 5.45
Cc1cc2nc(O)c(O)nc2cc1S(=O)(=O)NCc1ccccc1 | 0.442
C=CC1CN2CCC1CC2C(OC(=O)c1ccco1)c1ccnc2ccccc12 (stereo not shown) | 3.14
O=C1c2ccccc2C(=O)N1c1nccs1 | -1.77
CCc1ccc(N(CC(=O)Nc2ccc(NC(C)=O)cc2)S(=O)(=O)c2ccccc2)cc1 | 13.9
CC(=O)Nc1sc2c(c1C(=O)Nc1ccccc1C)CCC(C)C2 (stereo not shown) | -0.67
CCCCN(CCCNC(=O)C1CCN(S(=O)(=O)CCC)CC1)Cc1ccccc1 | 1.62
N#Cc1ccccc1NC(=O)C(Cc1ccc([N+](=O)[O-])cc1)N1C(=O)c2ccccc2C1=O (stereo not shown) | 0.937
CN1C(N)=NC(=O)/C1=C/c1cccnc1 | 2.56
Cc1ccccc1-c1noc(-c2nnn(-c3cccc(C)c3C)c2N)n1 | -6.26
CC(=O)Nc1c(C(=O)c2ccc(F)cc2)oc2ccccc12 | 1.4
CN(C)c1ccc(/C=c2/sc3n(c2=O)CCCCN=3)cc1 | 3.72
CC(NC(=O)C1CCN(C(=O)N(C)C)CC1)c1ccccc1 (stereo not shown) | -1.34
CC(/C=C1\N=C(c2ccccc2F)OC1=O)=C\c1ccccc1 | 1.97
COc1cccc(C2C=C(c3ccc(C(C)C)cc3)Nc3nnnn32)c1OC (stereo not shown) | 1.86
CCCN(CCO)Cc1ccc(SC)cc1 | 4.28
c1ccc(-c2n[nH]c(-c3ccccc3)c3cccc2-3)cc1 | 0.716
COc1ccc(N/C=C2\C(=O)N(C)C(=O)c3cc(OC)ccc32)cc1 | 4.06
CCOc1ncnc2c1sc1nc(-c3ccccc3)c3c(c12)CC(C)(C)OC3 | 1.63
COc1cccc(C(=O)Nc2ccc(F)cc2)c1 | -5.82

Structure (SMILES) | % Inhibition @ 10 uM [%]
O=C1C2C(c3cccc(F)c3)OC3(C(=O)c4ccccc4C3=O)C2C(=O)N1C1CCCCC1 (stereo not shown) | 4.26
Cn1c2c(c(=O)n(C)c1=O)CN(CCOc1cccc(C(F)(F)F)c1)CN2 | -1.08
Cc1ccc(Cn2c(SCc3ccc(C(=O)NCCN4CCCC4)cc3)nc3ccncc32)cc1 | -2.37
COc1ccc2nc3c([N+](=O)[O-])ccc(Cl)c3c(O)c2c1 | -4.4
CCC(c1cccs1)N1CNc2c(c(=O)n(C)c(=O)n2C)C1 (stereo not shown) | -2.88
CC(C)(C)c1ccc(/C=C/C(=O)NC2CCS(=O)(=O)C2)cc1 (stereo not shown) | 2.09
CCCN1Cc2cccc(C(=O)NCc3cccs3)c2C1=O | -0.499
OC1(C#Cc2ccccc2)c2ccccc2-c2ncccc21 (stereo not shown) | 3.15
CN(C)CCNC(=O)c1cc2ccccc2oc1=O | -3.53
Cc1ccc(CNC(=O)CNS(=O)(=O)c2c(C)cc(C)cc2C)cc1 | -0.564
CCNC(=O)c1ccc(CSc2nc3cccnc3n2Cc2cccc(F)c2)cc1 | 6.55
O=C(c1ccc(Cl)cc1)N1CCCOC1 | 25.2
COc1ccc(CNc2nc(-c3ccccc3)nn2C(=O)COc2ccccc2)cc1 | -1.11
COc1ccc(N2C(=O)CC(N3CCN(c4cc(C)ccc4C)CC3)C2=O)cc1 (stereo not shown) | -8.29
CC1CC(C)(C)NC(=S)N1CC(=O)NCc1ccccc1Cl (stereo not shown) | -1.51
CCOc1ccc(CNc2ccccc2Cl)cc1OC | -8.78
CCCOc1ccc(C2C(C(=O)c3ccc4c(c3)OCCO4)=C(O)C(=O)N2CC2CCCO2)cc1 (stereo not shown) | -5.03
O=C(Cc1coc2ccc3ccccc3c12)Nc1cccnc1 | -1.38
CCn1cc(C(=O)Nc2ccc(Cl)cc2C)c(C)n1 | -4.18
CCC(C(=O)NCc1cccnc1)n1sc2ccccc2c1=O (stereo not shown) | 2.21
COc1ccc2c(CNCC(C)c3ccccc3)c(C(=O)O)n(Cc3ccccc3F)c2c1 (stereo not shown) | -5.93
COCC(C)NC(=O)C(=O)c1cn(CC(=O)N2CCOCC2)c2ccccc12 (stereo not shown) | -4.49
COc1ccc2c(c1)c(=O)oc1cc(OCC(=O)O)ccc12 | -3.41
Cn1c(S(=O)(=O)Cc2ccc(Cl)cc2)nc2ccccc21 | 3.15
CC(=O)N/C(=C\c1ccccc1)C(=O)Nc1ccc(C)c(C)c1 | 4.54
